# Reference: paper PMC4336329 (PLoS ONE, 2015)
# The campaign covered roughly 310,000 compounds. About 14,000 (4.5%) showed an effect of 50% or more. Effects have a minus sign here. Some of the results follow.
# Molecular target: human ether-à-go-go-related gene (hERG) potassium channel (human, UniProt Q12809)
# Test: primary screen, population patch clamp on CHO cells stably expressing hERG
# 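Also: peak tail current of the secondary pulse compared with the same well before compound.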
# Chain of human ether-à-go-go-related gene (hERG) potassium channel (Q12809 whole entry, looked up): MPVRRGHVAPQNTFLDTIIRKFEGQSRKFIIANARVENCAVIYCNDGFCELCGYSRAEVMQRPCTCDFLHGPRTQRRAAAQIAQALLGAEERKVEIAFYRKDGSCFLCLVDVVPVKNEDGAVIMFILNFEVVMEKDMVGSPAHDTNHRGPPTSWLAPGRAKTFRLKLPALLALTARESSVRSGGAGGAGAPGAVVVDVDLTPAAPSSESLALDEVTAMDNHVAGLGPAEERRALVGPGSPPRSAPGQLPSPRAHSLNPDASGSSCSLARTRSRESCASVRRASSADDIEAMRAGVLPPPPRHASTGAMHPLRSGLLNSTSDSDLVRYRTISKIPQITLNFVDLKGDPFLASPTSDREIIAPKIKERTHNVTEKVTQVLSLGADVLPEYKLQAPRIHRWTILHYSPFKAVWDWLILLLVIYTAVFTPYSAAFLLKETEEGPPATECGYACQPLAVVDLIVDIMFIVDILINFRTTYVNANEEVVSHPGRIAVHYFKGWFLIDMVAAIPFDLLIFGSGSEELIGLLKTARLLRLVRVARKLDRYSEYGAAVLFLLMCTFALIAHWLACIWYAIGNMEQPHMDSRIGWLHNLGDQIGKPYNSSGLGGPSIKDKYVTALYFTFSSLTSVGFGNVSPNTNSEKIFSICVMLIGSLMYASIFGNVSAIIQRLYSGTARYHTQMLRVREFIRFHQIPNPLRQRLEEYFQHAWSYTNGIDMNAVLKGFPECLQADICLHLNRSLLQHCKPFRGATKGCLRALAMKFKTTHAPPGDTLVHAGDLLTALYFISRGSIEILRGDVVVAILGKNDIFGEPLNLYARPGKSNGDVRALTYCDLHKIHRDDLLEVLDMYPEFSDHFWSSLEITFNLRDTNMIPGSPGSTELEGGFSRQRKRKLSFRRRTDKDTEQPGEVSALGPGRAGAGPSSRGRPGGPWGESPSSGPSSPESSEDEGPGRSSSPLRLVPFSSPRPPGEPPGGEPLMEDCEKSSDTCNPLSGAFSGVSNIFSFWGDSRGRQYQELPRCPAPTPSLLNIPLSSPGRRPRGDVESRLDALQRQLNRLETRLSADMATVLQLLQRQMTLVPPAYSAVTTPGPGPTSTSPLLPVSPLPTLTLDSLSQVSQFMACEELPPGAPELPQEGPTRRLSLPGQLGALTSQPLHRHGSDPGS
row,SMILES,"hERG current change (%, negative = inhibition) at 10uM [%]"
1,O=C(COC(=O)CSc1ccc2ccccc2c1)Nc1ccccc1OC(F)F,-4.2
2,Cc1cccc(NC(=O)CCc2ccccc2)c1,-1.13
3,C#CCn1cnc2c(oc3ccccc32)c1=O,-0.773
4,COc1ccc(Cl)cc1NC(=O)CN(C)C(=O)c1cc(-c2ccncc2)nc2ccccc12,-8.15
5,CCc1c(C)c2nncn2[nH]c1=O,0.209
6,Cc1ccc(S(=O)(=O)N2CCCC(C(=O)NCCC(C)C)C2)cc1 (stereo not drawn),20
7,Cc1coc(C)c1C(=O)CC1(O)C(=O)N(C)c2ccc(Cl)cc21 (stereo not drawn),10.4
8,COC(=O)c1cc(S(=O)(=O)N2CCN(c3ccccc3F)CC2)c[nH]1,4.27
9,FC(F)(F)Oc1ccc(-c2cn3cccnc3n2)cc1,-3.79
10,CC(C)(C)NC(=O)c1ccc2c(c1)N(CC(=O)N1CCCC1)C(=O)C(C)(C)O2,11.2
11,CCOC(=O)N1CCN(C(=O)c2ccc(N(Cc3ccc(Cl)cc3)S(C)(=O)=O)cc2)CC1,-15.3
12,CN(C)/C=C(\C#N)C(=O)Nc1ccccc1,14
13,Cc1cn([C@@H](CCCCNC(=O)OC(C)(C)C)C(=O)NCCCCCCCCCCC(=O)N2CCN(C(=O)OC(C)(C)C)CC2)nn1,-4.39
14,COc1ccc(CCNS(=O)(=O)c2cccc(C(=O)O)c2)cc1OC,16.2
15,CCCc1cc(=O)[nH]c(SCC(=O)c2c(C)[nH]c3ccccc23)n1,-6.2
16,CCS(=O)(=O)N1N=C(c2cccs2)CC1c1cc2cc(C)ccc2nc1Cl (stereo not drawn),-21
17,COc1ccc(OC)c(NC(=O)COc2ccc3c(c2)CCC3)c1,14.3
18,CCC(=O)NCCCOc1ccccc1,-5
19,Cc1ccc(CNS(=O)(=O)c2ccc3c(c2)C(C)(C)C(=O)N3C)cc1,-4.42

row,SMILES,"hERG current change (%, negative = inhibition) at 10uM [%]"
1,COc1ccc(NC(=O)CSc2nnc(Cn3c(=O)sc4ccccc43)n2C)cc1OC,-4.51
2,COCCN(C(=O)c1ccc(OCC(C)C)cc1)c1c(N)n(Cc2ccccc2)c(=O)[nH]c1=O,13.4
3,COc1ccc(/C=N/NC(=O)c2ccc(Br)cc2)cc1Cn1cc(Cl)cn1,-16.6
4,COC(=O)c1c(N2C(=O)CC(Sc3ncccc3C(=O)O)C2=O)sc(C)c1C (stereo not drawn),5.89
5,COc1ccc(N2CC(C(=O)OCC(=O)Nc3cc(C)on3)CC2=O)cc1 (stereo not drawn),5.27
6,O=C(NC(=S)Nc1ccc(N2CCOCC2)cc1)c1ccccc1,-9.69
7,O=C(Nc1cccc(C(=O)NC2CCCC2)c1)c1ccccc1,-8.5
8,COc1ccc(C2=NN(C(=O)c3ccco3)C(c3cc4ccccc4nc3Cl)C2)cc1 (stereo not drawn),8.45
9,COc1ccc(N(C)C(=O)CC2(CC(=O)O)CCCCC2)cc1,-3.61
10,CCOc1cc(/C=N/Nc2ccccc2Cl)ccc1OCC(=O)O,12.4
11,O=C(COC(=O)CNC(=O)C1CCCCC1)Nc1ccc2c(c1)OCCO2,14
12,Cc1cc2ncc(-c3ccc(Cl)cc3)cn2n1,17.5
13,O=C(N/N=C/C(Br)=C/c1ccccc1)c1n[nH]c2c1CCC2,-5.4
14,CCCCN(C)C1CCN(C(=S)Nc2ccc(OCC)cc2)CC1,-76.7
15,CN(CC(=O)Nc1cccc(F)c1)C(=O)CCCc1nc2ccccc2c(=O)[nH]1,-1.44
16,O=C(c1ccsc1)N1CCCC(Nc2ccc(F)c(F)c2)C1 (stereo not drawn),-18.3
17,O=C(COC(=O)c1nc(Cl)ccc1Cl)Nc1ccc2c(c1)OCO2,-3.62
18,CCOc1ccc(CCNC(=O)CCC(=O)N2CCSc3ccccc32)cc1OCC,-2.52
19,CC(=O)CSc1nnc2c3ccccc3nc(C(C)(C)C)n12,-11.9

row,SMILES,"hERG current change (%, negative = inhibition) at 10uM [%]"
1,COc1ccc2c(c1)[nH]c1c(=O)n(N)cnc12,4.25
2,Cc1ccc(Cl)cc1N1CCN(C(=O)C2CCN(S(=O)(=O)c3cccnc3)CC2)CC1,-46
3,Br.COc1ccc2c(c1)nc(SCC(=O)c1ccc(Br)s1)n2C,-0.582
4,COc1cc2cc(Br)cc(Br)c2nc1C,-12.6
5,O=C(Nc1nnc(C2CC2)s1)c1cc(Cl)sc1Cl,20
6,CCn1c(Oc2ccccc2F)nc2c1c(=O)n(C)c(=O)n2C,13.3
7,Cc1ccc(CNC(=S)Nc2ccc(OC(F)F)cc2C)cc1,8.43
8,Cc1sc2ncnc(NCC3COc4ccccc4O3)c2c1C (stereo not drawn),-13.6
9,COc1cc(NC(=O)COC(=O)Cn2cnc3c2c(=O)n(C)c(=O)n3C)cc(OC)c1,1.05
10,N#Cc1ccc(NC(=O)N2CCC(c3nc4c(nnn4Cc4cccc(Cl)c4)c(=O)[nH]3)CC2)cc1,3.5
11,Cc1cccc(C(=O)N2CCCC(CCC(=O)N3CCN(c4ccccn4)CC3)C2)c1 (stereo not drawn),-74.5
12,COc1cccc(CNc2ccc3[nH]c(=O)[nH]c3c2)c1OCc1ccccc1Cl,21.9
13,CCOC(=O)c1ccc(N/C=C/C(=O)c2ccco2)cc1,9.76
14,CC(C)CCN1CC(C(=O)NC(C)C)CC1=O (stereo not drawn),13
15,C=CCn1c(SCCC)nc2sc3c(c2c1=O)CCc1ccccc1-3,14.3
16,N#Cc1ccc(Nc2nc(-c3ccc(O)cc3O)cs2)cc1C(F)(F)F,11.9
17,COC(=O)COc1ccc(NC(=O)Cn2nc(-c3ccccc3)c3ccccc3c2=O)cc1,7.62
18,CCn1c(CNS(=O)(=O)c2ccc(Br)cc2)nnc1SC,14.3
19,CCCn1c(CCNc2nc(-c3ccc(OC)cc3)cs2)nc2ccccc21,-9.91
